Test results as given in the RNAGym collection of RNA variant scans (doi:10.1093/nar/gkz1192).
Read counts are not given, so values of variants with three or more changes are uncertain.

B1: CPEB3 Ribozyme (parent)
chain: UAACAGGGGGCCACAGCAGAAGCGUUCACGUCGCAGCCCCUGUCAGAUUCUGGUGAAUCUGCGAAUUCUGCUGUAUAUCUC

Variants of: B1
Experiment: self-cleavage, relative activity (ratio to wild type); higher = more cleavage; in vitro, sequencing
Outline: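 After error-prone PCR and barcoding, CPEB3 ribozyme mutant libraries were transcribed with T7 RNA polymerase at 37°C for 5 hours, then given 15 min with DNase I before an EDTA stop, and they cleaved during both steps. Reverse transcription with template switching preceded Illumina sequencing. Relative activity divides a variant's cleaved/total read fraction by the unmutated ribozyme's. At least 5 reads were required per variant, and three batches were averaged.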

Variant	self-cleavage
C27U U48C U51A	0.15
U26G A45G A56G U80A	0.04
A28G A35U U60A U69A	0.12
U26C U51A C59A C71A U72C	0.08
U26C A47G G63U	0.58
C27U U31C U60C U80C	0.21
C27A G36U U41A A45U	0.1
C27U A57G U78C	0.37
A28C U43C U54C A65U U72C	0.19
A28G A65G U78C	0.19
C27A C38A U69A	0.08
U26C A45G A56G A64G	0.14
C27A U41C A45G	0.24
A28G G30A U72C	0.13
A28C U60C U72A	0.28
A28G C32U U41G U54C U72C	0.09
U26C A35G U41C U43A	0.07
U26G C38A A64G	0.21
U26G U60C U66C C79U	0.17
A28G G30A U43C A56U	0.07
U26C C27U A64G U72G	0.09
U26C A35G A45G U69A	0.47
U26C C79A U80C	0.61
U26C U41A U66C U67C	0.21

Variant	self-cleavage
C27A U41A A45U A64G A65U	0.11
U26C G36C U80C	0.08
U26C A35G U48C A64G U72C	0.19
U26C C39U U41C U66C	0.44
A28C A35U U54C	0.16
U26C A45G U72C	0.35
U26C C44A U58C	0.2
U26C A45G U60A	0.23
U26C C32G A47G U48C A65G U72A	0.11
A28C U41C G52A U72A	0.09
U26C C32U U74A	0.28
U26C C39A A47G U49C	0.08
U26C U49C U67A	0.07
A28G A35U U48C U51A A56C A64C	0.07
A28G A45U U49G A56G U66C U74C	0.06
A28G C38A U41C U51A	0.1
A28G C32A A35G U51G A64G	0.39
U26C G30A U49C A56G	0.23
U26C U31A U41C	0.23
U26C U51A U54C U67A	0.04
U26C U31A G33A U51C U60C U76A	0.13
U26C U51A U78A	0.46
A28C A35U U66C U80A	0.39
U26C U41A A47G C68U U74C U78A	0.17

Variant	self-cleavage
A28G C40G U49G U51G	0.06
A28G C29U G33C A45U G46A U51C U76C	0.13
U26C C40U G53C U60A	0.18
C27A A47G U54C U67C	0.11
U26C U58G U72C	0.17
U26C C44U A47G U69A U78C	0.07
A28G C39U U48C A64G	0.1
A28G A57U A65G	0.06
U26C U54G U72C A75G	0.16
U26C U58C U60A	0.12
U26C A56G U78C	0.22
U26C A77U U78A	0.46
U26C U31C U60A A65G U72G	0.06
U26C A45G A64G U66C U80C	0.13
U26C U41A A65G	0.2
U26C U51A U54C G61U U67A	0.16
U26C U31A C37U U49C A56U	0.08
U26C A28U C44U U51A U58A	0.09
U26C C38U A45G U74A U78C	0.35
U26C U60C A64G	0.09
U26C A45U U54C A56G A57G U74A	0.21
U26C U54A A56U	0.23
U26C U54A A56G	0.27
U26C U54A A65G U67G	0.1

Variant	self-cleavage
U26G U58C U67C U72C	0.05
A28G A56G U60G	0.24
U26C C32U U54A U74C	0.17
U26C U48C U76A	0.34
U26C C29G A65G A77G U78C	0.1
A28G A56U A64G U69A U72A	0.09
A28C U67C U76A	0.12
A28C U58G U80C	0.09
A28G A47U U58C U67C U74C U80A	0.12
C27U A28U A56G U58C U60C G61U C71U	0.04
U26C G61U U74C	0.33
U26C A28U C32A U58A	0.08
U26C A56G C62U U80A	0.08
U26C A45G U72C U76C	0.28
A28C A35U A64G	0.33
A28G C40A U58A U78C C79G	0.3
A28G G33U U54A	0.21
A28C A47G A56G U58C U72A U80C	1.06
U26C A28G U54A U58C	0.22
A28C C34U A56G C59G A64G A65G	0.06
A28C U49A A56U U72C	0.83
C27A A28G U66C	0.18
C27A A57U U58C A64G	0.07
A28G G30A U43A	0.54

Variant	self-cleavage
U26C C34U U48C A64U U78C	0.12
A28C U51A U66A	0.12
U26C A35G G42A	0.4
A28G C34U U58C U69A	0.09
A28G A47U A57G A64G U76C	0.12
U26C U49A U76A U80C	0.15
U26C U51C U60A	0.42
U26G A45G U48C U58C	0.7
A28G A35C A45G C79U	0.26
U26C A57G U60A A64U U72C	0.16
U26C U31C U43A U60A	0.06
C27U A28G U41C C71A	0.06
U26C U41C U58C U66A U72G	0.08
C27U U54A U76C	0.11
C27A U41A A64G A65U	0.12
U26C A35G C38U A64U	0.42
U26C A35U U49C U60C U74C C79A	0.09
U26C C37U U58C	0.15
U26C G30A A35U	0.15
A28G C37U U43A U51A U69A A77G	0.09
A28C U43C A77G	0.22
U26C U48A A56G	0.11
A28G A47U U67C U74C U80A	0.1
U26C U49C U51A	0.29

Variant	self-cleavage
U26C U48C U72C	0.2
C27A U31C G53A	0.11
U26C U41A A47G U54C A56C	0.12
A28G C37A U43C U51A A65C U76C C79U	0.04
A28G C34U U74A A77G	0.19
U26C U58C C62U U72C	0.08
U26C U54C A57G U74C	0.22
U26C U51C U69C	0.09
A28G G33A U67C U72C	0.06
A28G A57G U76C	0.36
U26C U51C G63A	0.21
U26C U51A U69C	0.39
C27A A47U A65G U78C	0.08
U26C U41A U60C	0.29
A28G G53A A65G	0.2
U26G U66G U78A	0.19
A28G A64U U78C	0.21
U26C A35G U48C U69C U72C	0.27
C27A A64G U67C	0.23
U26C C39A U41C U43A U67C U80C	0.09
U26C A35U U54C	0.12
U26C U67C U80C	0.31
U26G A28G U72C	0.08
U26C A45G A57G U69C U72A U78A	0.09

Variant	self-cleavage
U26C C40A A56U	0.22
U26C U41A U51C	0.36
U26C A57G U72A	0.4
U26C C39A U67C U69A	0.07
A28G A64U G70A U74A	0.09
A28G C40U A45G C62G	0.22
U26C A45G U54A U67C	0.19
A28G A35U U48C C81U	0.09
U26C A35G G36A A56U U60C	0.14
C27U U72G U80C	0.2
U26C A47U U54C	0.19
A28G A57G U66A	0.11
A28G A65G U67A	0.45
A28G A65G U67C	0.18
A28G A45U U80C	0.29
C27G C32U U41C A56G	0.13
U26G U41C A64G	0.23
U26C C37A A56G G70A U72G	0.05
A28G A45G U67G U74C A75G	0.06
A28G G33A A45U U60C	0.18
A28G A35U C68G A77G	0.21
U26C C29G U31A A35G U48C	0.26
U26C U66C U74A	0.22
